{"source": "patent US7166622B2", "about": "“Substituted phenylsulfonamide inhibitors of beta amyloid production” (Wyeth, priority 2002, dated 2007)", "note": "Values joined by “and” are separate entries in the source; they are usually repeats but may differ in a detail not shown here. Equal entries are not always repeated. At least one read-out could not be matched to a standard name with certainty.", "data": [{"test_system": "beta amyloid production", "experiment": "Repressor Release Assay (RRA)", "format": "cell-based", "details": "Conc 10 μg/ml; luciferase activity over diluent control", "in_short": "(§1)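 Read-out is luciferase luminescence (RLU) after 36-48 h duplicate compound exposure of transfected CHO-K1 cells. These cells carry transiently introduced APP-lacI and pRSVO-luc DNA. Diluent control was 25 mM Hepes/1% DMSO; toxicity recorded as binary score (1 non-toxic, 0 toxic).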", "units": {"APPI Fold Increase": "fold"}, "values": [{"smiles": "C=CCC(O)[C@@H](NS(=O)(=O)c1cccc(Cl)c1)[C@@H](C)CC", "note": "(stereo partly drawn) [Example 194, 3-chloro-N-{(1S)-2-hydroxy-1-[(1S)-1-methylpropyl]-4-pentenyl}benzenesulfonamide]", "APPI Fold Increase": 1.97}, {"smiles": "CCCCC(O)(CCCC)[C@@H](NS(=O)(=O)c1ccc(Br)cc1)[C@@H](C)CC", "note": "[Example 213, 4-bromo-N-{(1S)-2-butyl-2-hydroxy-1-[(1S)-1-methylpropyl]hexyl}benzenesulfonamide]", "APPI Fold Increase": 1.6}]}, {"test_system": "beta amyloid production", "experiment": "Repressor Release Assay (RRA)", "format": "cell-based", "details": "Conc 10 μg/ml; relative to Example 98", "in_short": "as §1", "values": [{"smiles": "CC[C@H](C)[C@H](NS(=O)(=O)c1cccc(Cl)c1)C(O)CC(C)C", "note": "(stereo partly drawn) [Example 192, 3-chloro-N-{(1S)-2-hydroxy-4-methyl-1-[(1S)-1-methylpropyl]pentyl}benzenesulfonamide]", "APPI % of Example #98": "76.01%"}, {"smiles": "C=CC(O)[C@@H](NS(=O)(=O)c1cccc(Cl)c1)[C@@H](C)CC", "note": "(stereo partly drawn) [Example 193, 3-chloro-N-{(1 S)-2-hydroxy-1-[(1S)-1-methylpropyl]-3-butenyl}benzenesulfonamide]", "APPI % of Example #98": "86.66%"}, {"smiles": "C=CCC(O)[C@@H](NS(=O)(=O)c1cccc(Cl)c1)[C@@H](C)CC", "note": "(stereo partly drawn) [Example 194, 3-chloro-N-{(1S)-2-hydroxy-1-[(1S)-1-methylpropyl]-4-pentenyl}benzenesulfonamide]", "APPI % of Example #98": "166.42% and 122.18%"}, {"smiles": "CCC(O)[C@@H](NS(=O)(=O)c1cccc(Cl)c1)[C@@H](C)CC", "note": "(stereo partly drawn) [Example 195, 3-chloro-N-{(1S)-2-hydroxy-1-[(1S)-1-methylpropyl]butyl}benzenesulfonamide]", "APPI % of Example #98": "104.89%"}, {"smiles": "CC[C@H](C)[C@H](NS(=O)(=O)c1cccc(Cl)c1)C(O)c1ccc(Cl)cc1", "note": "(stereo partly drawn) [Example 196, 3-chloro-N-{(1S,2S)-1-[(4-chlorophenyl)(hydroxy)methyl]-2-methylbutyl}benzenesulfonamide]", "APPI % of Example #98": "86.69%"}, {"smiles": "CC[C@H](C)[C@H](NS(=O)(=O)c1cccc(Cl)c1)C(O)C=C(C)C", "note": "(stereo partly drawn) [Example 197, 3-chloro-N-{(1S)-2-hydroxy-4-methyl-1-[(1S)-1-methylpropyl]-3-pentenyl}benzenesulfonamide]", "APPI % of Example #98": "74.67%"}, {"smiles": "CC[C@H](C)[C@H](NS(=O)(=O)c1cccc(Cl)c1)C(O)c1ccc(OC)cc1", "note": "(stereo partly drawn) [Example 198, 3-chloro-N-{(1S,2S)-1-[hydroxy(4-methoxyphenyl)methyl]-2-methylbutyl}benzenesulfonamide]", "APPI % of Example #98": "74.68%"}, {"smiles": "CC[C@H](C)[C@H](NS(=O)(=O)c1cccc(Cl)c1)C(O)CCC1OCCCO1", "note": "(stereo partly drawn) [Example 199, 3-chloro-N-{(1S)-4-(1,3-dioxan-2-yl)-2-hydroxy-1-[(1S)-1-methylpropyl]butyl}benzenesulfonamide]", "APPI % of Example #98": "78.5%"}, {"smiles": "C=CCCC(O)[C@@H](NS(=O)(=O)c1cccc(Cl)c1)[C@@H](C)CC", "note": "(stereo partly drawn) [Example 200, 3-chloro-N-{(1S)-2-hydroxy-1-[(1S)-1-methylpropyl]-5-hexenyl}benzenesulfonamide]", "APPI % of Example #98": "87.52%"}, {"smiles": "CC[C@H](C)[C@H](NS(=O)(=O)c1cccc(Cl)c1)C(O)c1ccc(SC)cc1", "note": "(stereo partly drawn) [Example 201, 3-chloro-N-((1S,2S)-1-{hydroxy[4-(methylsulfanyl)phenyl]methyl}-2-methylbutyl)benzenesulfonamide]", "APPI % of Example #98": "116.18%"}, {"smiles": "CCCCCCC(O)[C@@H](NS(=O)(=O)c1ccccc1F)[C@@H](C)CC", "note": "(stereo partly drawn) [Example 203, 2-fluoro-N-{(1S)-2-hydroxy-1-[(1S)-1-methylpropyl]octyl}benzenesulfonamide]", "APPI % of Example #98": "119.61%"}, {"smiles": "CCCCCC(O)[C@@H](NS(=O)(=O)c1ccccc1F)[C@@H](C)CC", "note": "(stereo partly drawn) [Example 204, 2-fluoro-N-{(1S)-2-hydroxy-1-[(1S)-1-methylpropyl]heptyl}benzenesulfonamide]", "APPI % of Example #98": "128.72%"}, {"smiles": "CCCCC(O)[C@@H](NS(=O)(=O)c1ccccc1F)[C@@H](C)CC", "note": "(stereo partly drawn) [Example 205, 2-fluoro-N-{(1S)-2-hydroxy-1-[(1S)-1-methylpropyl]hexyl}benzenesulfonamide]", "APPI % of Example #98": "59.11%"}, {"smiles": "C=CC(O)[C@@H](NS(=O)(=O)c1ccccc1F)[C@@H](C)CC", "note": "(stereo partly drawn) [Example 206, 2-fluoro-N-{(1S)-2-hydroxy-1-[(1S)1-methylpropyl]-3-butenyl}benzenesulfonamide]", "APPI % of Example #98": "92.42%"}, {"smiles": "CC[C@H](C)[C@H](NS(=O)(=O)c1ccccc1F)C(O)c1ccc(F)cc1", "note": "(stereo partly drawn) [Example 207, 2-fluoro-N-{(1S,2S)-1-[(4-fluorophenyl) (hydroxy)methyl]-2-methylbutyl}benzenesulfonamide]", "APPI % of Example #98": "87.79%"}, {"smiles": "CC[C@H](C)[C@H](NS(=O)(=O)c1ccccc1F)C(O)c1ccc(Cl)cc1", "note": "(stereo partly drawn) [Example 208, N-{(1S,2S)-1-[(4-chlorophenyl) (hydroxy)methyl]-2-methylbutyl}-2-fluorobenzenesulfonamide]", "APPI % of Example #98": "97.83%"}, {"smiles": "CC[C@H](C)[C@H](NS(=O)(=O)c1ccccc1F)C(O)CCC1OCCCO1", "note": "(stereo partly drawn) [Example 210, N-{(1S)-4-(1,3-dioxan-2-yl)-2-hydroxy-1-[(1S)-1-methylpropyl]butyl}-2-fluorobenzenesulfonamide]", "APPI % of Example #98": "81.7%"}, {"smiles": "CC[C@H](C)[C@H](NS(=O)(=O)c1ccc(Br)cc1)C(C)(C)O", "note": "[Example 211]", "APPI % of Example #98": "71.66%"}, {"smiles": "CC[C@H](C)[C@H](NS(=O)(=O)c1ccc(Br)cc1)C(O)(c1ccccc1)c1ccccc1", "note": "[Example 215, 4-bromo-N-{(1S,2S)-1-[hydroxy(diphenyl)methyl]-2-methylbutyl}benzenesulfonamide]", "APPI % of Example #98": "75.81%"}, {"smiles": "CC[C@H](C)[C@H](NS(=O)(=O)c1ccc(Br)cc1)C(O)(CC)CC", "note": "[Example 217, 4-bromo-N-{(1S)-2-ethyl-2-hydroxy-1-[(1S)-1-methylpropyl]butyl}benzenesulfonamide]", "APPI % of Example #98": "77.38%"}, {"smiles": "CC[C@H](C)[C@H](NS(=O)(=O)c1ccc(Br)cc1)C(O)(c1ccc(Cl)cc1)c1ccc(Cl)cc1", "note": "[Example 218, N-{(1S,2S)-1-[bis(4-chlorophenyl) (hydroxy)methyl]-2-methylbutyl}-4-bromobenzenesulfonamide]", "APPI % of Example #98": "71.25%"}, {"smiles": "C=C(C)C(O)(C(=C)C)[C@@H](NS(=O)(=O)c1ccc(Br)cc1)[C@@H](C)CC", "note": "[Example 219, 4-bromo-N-{(1S)-2-hydroxy-2-isopropenyl-3-methyl-1-[(1S)-1-methylpropyl]-3-butenyl}benzenesulfonamide]", "APPI % of Example #98": "82.73%"}, {"smiles": "C/C=C(\\C)C(O)(/C(C)=C/C)[C@@H](NS(=O)(=O)c1ccc(Br)cc1)[C@@H](C)CC", "note": "(stereo partly drawn) [Example 220, 4-bromo-N-{(1S,3E)-2-hydroxy-3-methyl-2-[(1E)-1-methyl-1-propenyl]-1-[(1S)-1-methylpropyl]-3-pentenyl}benzenesulfonamide]", "APPI % of Example #98": "151.23%"}, {"smiles": "C=CCCC(O)(CCC=C)[C@@H](NS(=O)(=O)c1ccc(Br)cc1)[C@@H](C)CC", "note": "[Example 221, 4-bromo-N-{(1S)-2-(3-butenyl)-2-hydroxy-1-[(1S)-1-methylpropyl]-5-hexenyl}benzenesulfonamide]", "APPI % of Example #98": "263.29%"}, {"smiles": "CC[C@H](C)[C@H](NS(=O)(=O)c1ccc(Cl)cc1)C(C)(C)O", "note": "[Example 223, 4-chloro-N-[(1S,2S)-1-(1-hydroxy-1-methylethyl)-2-methylbutyl]benzenesulfonamide]", "APPI % of Example #98": "79.87%"}, {"smiles": "CCCCCCC(O)(CCCCCC)[C@@H](NS(=O)(=O)c1ccc(Cl)cc1)[C@@H](C)CC", "note": "[Example 224, 4-chloro-N-{(1S)-2-hexyl-2-hydroxy-1-[(1S)-1-methylpropyl]octyl}benzenesulfonamide]", "APPI % of Example #98": "76.16%"}, {"smiles": "CCCCC(O)(CCCC)[C@@H](NS(=O)(=O)c1ccc(Cl)cc1)[C@@H](C)CC", "note": "[Example 225, N-{(1S)-2-butyl-2-hydroxy-1-[(1S)-1-methylpropyl]hexyl}-4-chlorobenzenesulfonamide]", "APPI % of Example #98": "234.08%"}, {"smiles": "CC[C@H](C)[C@H](NS(=O)(=O)c1ccc(Cl)cc1)C(O)(CC(C)C)CC(C)C", "note": "[Example 226, 4-chloro-N-{(1S)-2-hydroxy-2-isobutyl-4-methyl-1-[(1S)-1-methylpropyl]pentyl}benzenesulfonamide]", "APPI % of Example #98": "157.69%"}, {"smiles": "CC[C@H](C)[C@H](NS(=O)(=O)c1ccc(Cl)cc1)C(O)(c1ccccc1)c1ccccc1", "note": "[Example 227, 4-chloro-N-{(1S,2S)-1-[hydroxy(diphenyl)methyl]-2-methylbutyl}benzenesulfonamide]", "APPI % of Example #98": "75.91%"}, {"smiles": "CC[C@H](C)[C@H](NS(=O)(=O)c1ccc(Cl)cc1)C(O)(CC)CC", "note": "[Example 229, 4-chloro-N-{(1S)-2-ethyl-2-hydroxy-1-[(1S)-1-methylpropyl]butyl}benzenesulfonamide]", "APPI % of Example #98": "69.7%"}, {"smiles": "C=C(C)C(O)(C(=C)C)[C@@H](NS(=O)(=O)c1ccc(Cl)cc1)[C@@H](C)CC", "note": "[Example 230, 4-chloro-N-{(1S)-2-hydroxy-2-isopropenyl-3-methyl-1-[(1S)-1-methylpropyl]-3-butenyl}benzenesulfonamide]", "APPI % of Example #98": "80.53%"}, {"smiles": "CC[C@H](C)[C@H](NS(=O)(=O)c1ccc(Cl)cc1)C(O)(c1ccc(OC)cc1)c1ccc(OC)cc1", "note": "[Example 231, 4-chloro-N-((1S,2 S)-1-{hydroxy [bis(4-methoxyphenyl)]methyl}-2-methylbutyl)benzenesulfonamide]", "APPI % of Example #98": "114.39%"}, {"smiles": "C/C=C(\\C)C(O)(/C(C)=C/C)[C@@H](NS(=O)(=O)c1ccc(Cl)cc1)[C@@H](C)CC", "note": "(stereo partly drawn) [Example 232, 4-chloro-N-{(1S,3E)-2-hydroxy-3-methyl-2-[(1E)-1-methyl-1-propenyl]-1-[(1S)-1-methylpropyl]-3-pentenyl}benzenesulfonamide]", "APPI % of Example #98": "89.04%"}, {"smiles": "C=CCCC(O)(CCC=C)[C@@H](NS(=O)(=O)c1ccc(Cl)cc1)[C@@H](C)CC", "note": "[Example 233, N-{(1S)-2-(3-butenyl)-2-hydroxy-1-[(1S)-1-methylpropyl]-5-hexenyl}-4-chlorobenzenesulfonamide]", "APPI % of Example #98": "306.66%"}, {"smiles": "CC[C@H](C)[C@H](NS(=O)(=O)c1ccc(F)cc1)C(C)(C)O", "note": "[Example 235, 4-fluoro-N-[(1S,2S)-1-(1-hydroxy-1-methylethyl)-2-methylbutyl]benzenesulfonamide]", "APPI % of Example #98": "64.32%"}]}, {"test_system": "beta amyloid production", "experiment": "Repressor Release Assay (RRA)", "format": "cell-based", "details": "Conc 20 μg/ml; relative to Example 98", "in_short": "as §1", "units": {"APPI % of Example #98": "%"}, "values": [{"smiles": "C=C(C)C(O)(C(=C)C)[C@@H](NS(=O)(=O)c1ccc(Br)cc1)[C@@H](C)CC", "note": "[Example 219, 4-bromo-N-{(1S)-2-hydroxy-2-isopropenyl-3-methyl-1-[(1S)-1-methylpropyl]-3-butenyl}benzenesulfonamide]", "APPI % of Example #98": 75.9}, {"smiles": "C=C(C)C(O)(C(=C)C)[C@@H](NS(=O)(=O)c1ccc(Cl)cc1)[C@@H](C)CC", "note": "[Example 230, 4-chloro-N-{(1S)-2-hydroxy-2-isopropenyl-3-methyl-1-[(1S)-1-methylpropyl]-3-butenyl}benzenesulfonamide]", "APPI % of Example #98": 51}, {"smiles": "C/C=C(\\C)C(O)(/C(C)=C/C)[C@@H](NS(=O)(=O)c1ccc(Cl)cc1)[C@@H](C)CC", "note": "(stereo partly drawn) [Example 232, 4-chloro-N-{(1S,3E)-2-hydroxy-3-methyl-2-[(1E)-1-methyl-1-propenyl]-1-[(1S)-1-methylpropyl]-3-pentenyl}benzenesulfonamide]", "APPI % of Example #98": 115}]}]}
